The values below come from PMC12136788.

The other results are listed elsewhere or left out.

First the molecules themselves.
T1: UNK ZnF1-6 (called full-length) (human, UniProt Q9C0B0 30-357)
T1 sequence: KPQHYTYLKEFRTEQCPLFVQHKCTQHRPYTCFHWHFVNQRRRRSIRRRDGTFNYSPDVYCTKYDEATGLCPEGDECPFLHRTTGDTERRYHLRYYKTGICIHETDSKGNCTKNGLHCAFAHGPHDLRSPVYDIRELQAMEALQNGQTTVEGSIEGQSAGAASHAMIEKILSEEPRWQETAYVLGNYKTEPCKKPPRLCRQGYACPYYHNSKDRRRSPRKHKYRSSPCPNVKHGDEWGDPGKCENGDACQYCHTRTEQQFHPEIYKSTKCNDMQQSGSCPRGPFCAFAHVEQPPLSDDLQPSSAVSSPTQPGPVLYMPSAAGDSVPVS

B1: chr12:24811411:24811512:-|3pUTR|ENSG00000060982|msi1|FALSE|unique (ssRNA)
RNA: GGGAGUUCUACAGUCCGACGAUCGUGAAGAACUCUAUAUUUGUAUGUUGAGAGGGCAUGGAAUAAUUGUAUUUUGCUGGCAAUAGACACAUUCUUUAUUAUUUGCAGAUUCCUCAUCAAAUCUGUAAUUAUGCACAGUUUCUGCAACAGAGGAUUGAGCAUCA
B2: chr12:110350735:110350839:+|3pUTR|ENSG00000174437|unk|total|mutant (ssRNA)
RNA: GGGAGUUCUACAGUCCGACGAUCUACAGUUUGCUUAUUUAUAAAUUCAUUAAAAACACUACAGGUGUUGAAUGGUUAAAAUGCCGGCCUCCAGUUCAUUUUCAGUUAUUUUCUGAGUGUGCAGACAGCUAUUUCGCACUGUAUCAACAGAGGAUUGAGCAUCA
B3: ENSG00000107863:be:win_5401|CDS|ENSG00000107863|bound_else_gene|NA|bound_elsewhere_windowed (ssRNA)
RNA: GGGAGUUCUACAGUCCGACGAUCAGACAUACACUAGGAGGGCACAGAGAUGCUACCGAAAUCAGCGUUUUGAAUUUUUGGAAAGUGCAUGAGCAGAGCGGGGAGAGAGAAUCUGAACUUUCAGCUGUAAACCGGUUAAAACCACAACAGAGGAUUGAGCAUCA
B4: ENSG00000127995:stop:overlap|stop_codon|ENSG00000127995|stop_codon|NA|stop_codon (ssRNA)
RNA: GGGAGUUCUACAGUCCGACGAUCUAGCUGCAUUUUUUUGUGGACUCCUCAUCUUAUCAUCCAUUCAAGAUAAAUCAAAACAUUAGGUUCCAAAAAUUCUAAAAAACCUAAACUCUUCAGGCUACCUUUGUGUGUCUCUAGAAGCAACAGAGGAUUGAGCAUCA
B5: chr4:173384700:173388395:-|three_prime_utr|ENSG00000164106|control|control|control (ssRNA)
RNA: GGGAGUUCUACAGUCCGACGAUCCUGGAGAACACCAUUCCUGAUUUCCCACAAACUGCACUACAUCAGUAUAACUGCAUUUCUAGUUUCUAUAUAGUGCAAUAGAGCAUAGAUUCUAUAAAUUCUUACUUGUCUAAGACAAGUCAACAGAGGAUUGAGCAUCA
B6: chr6:139242528:139243314:-|CDS|ENSG00000164440|control|control|control (ssRNA)
RNA: GGGAGUUCUACAGUCCGACGAUCGGUGCCUGCAUGCGAGCCCAGUAGGCAGCCCCCACGAGCAGCAGCAGAGGAGCUGCCAGUAGGGGCCUCAGCUGGGCCCCAGCCGCGCAACGUGGCUGACACCAAUCUGGAAGGCGUCGACAACAGAGGAUUGAGCAUCA
B7: ENSG00000198589:be:win_8951|3pUTR|ENSG00000198589|bound_else_gene|NA|bound_elsewhere_windowed (ssRNA)
RNA: GGGAGUUCUACAGUCCGACGAUCGAAAAUUUGAUGCUGUAAUUUGGGUCCUGUAUUUUUCCAAACAACUGUGCUUCUUCAGCACUAAUAUUUCUGGGAUUUAAAUAGUAAUGUUUAAAUUAUGGUAAAUGUAAUUUAAAACAUCAACAGAGGAUUGAGCAUCA
B8: chr9:133361993:133362109:-|3pUTR|ENSG00000148248|msi1_unk|FALSE|overlapping (ssRNA)
RNA: GGGAGUUCUACAGUCCGACGAUCGGCAGGUUUCUGCUCAUAAGUGCUUUUGGAAGUCACCUACCUUUUUAACACAGCCGAACUAGUCCCAACGCGUUUGCAAAUAUUCCCCUGGUAGCCUACUUCCUUACCCCCGAAUAUUGGCAACAGAGGAUUGAGCAUCA
B9: chrX:117909842:117909960:-|CDS|ENSG00000003096|unk|total|mutant (ssRNA)
RNA: GGGAGUUCUACAGUCCGACGAUCAGCACAGGGGAGUUCUUGAAACUCCCUUUUGAGCGUCUUGCCUUCGUGCUUUCCAGUAACCGCCUUAAGCACUGUACUGAACUUGAGCUCUUUAAGGCUACCUGUCGUUGGCUUCGCCUGCAACAGAGGAUUGAGCAUCA
B10: chr3:48432659:48432768:-|CDS|ENSG00000164051|unk|total|mutant (ssRNA)
RNA: GGGAGUUCUACAGUCCGACGAUCAGUCCCCCGACCAGAGACAGAGAUGCCGAUGUCCUUUCAGCUGCCUUGAAAGAGCAGCUCCGUCAUUCCAGGCAAGUCCAUUCAUGUCCCGAAGGCUUACGAGAGCAGCUUGAUGGCCUACAACAGAGGAUUGAGCAUCA
B11: chr7:88202242:88202358:+|3pUTR|ENSG00000008277|unk|FALSE|unique (ssRNA)
RNA: GGGAGUUCUACAGUCCGACGAUCUCAGGAUAGAUAAGCAUGUACUCCUUUUUUAACUUGCUGGAAGACUUGCCCCUCCAAACUAGCACCCCCAAAAGACAACUUCUUUCAGAAACGGGGUGUUUUACCUAAACAUAGUAGCUUCAACAGAGGAUUGAGCAUCA
B12: chr1:117869688:117869789:-|3pUTR|ENSG00000196505|msi1|FALSE|unique (ssRNA)
RNA: GGGAGUUCUACAGUCCGACGAUCACUCCAGCAGUGAGCAUUUAGAGAGUGUGUUGUCUUCCAGAGUCAUGAAUGAUUUUGUUUAGCUAUCAGGUCUACUACCUCUAAGGACAUUUCAUAGCAGCAUCUCUUGAGUUGCCUGCACAACAGAGGAUUGAGCAUCA
B13: chr8:23145667:23145921:-|CDS|ENSG00000173530|control|control|control (ssRNA)
RNA: GGGAGUUCUACAGUCCGACGAUCGGGGAUGCUUGCCUCUCCCUAUCACUACCUUAUCAUCAUAGUGGUUUUAGUCAUCAUUUUAGCUGUGGUUGUGGUUGGCUUUUCAUGUCGGAAGAAAUUCAUUUCUUACCUCAAAGGCAUCAACAGAGGAUUGAGCAUCA
B14: chr6:107883018:107883119:-|CDS|ENSG00000025796|unk|FALSE|bound_elsewhere (ssRNA)
RNA: GGGAGUUCUACAGUCCGACGAUCAAGGAAGAUGAAGAAGAAGUUUCAGAUAAGGGCAGUGAUUCUGAAGAAGAAGAAACCAAUAGAGAUUCCCAAAGUGAGAAAGAUGAUGGUAGUGACAGAGACUCUGAUAGAGAGCAAGAUCAACAGAGGAUUGAGCAUCA
B15: chr7:50445662:50445763:-|CDS|ENSG00000132436|msi1|total|mutant (ssRNA)
RNA: GGGAGUUCUACAGUCCGACGAUCGUUAUCUCAACGGGGAGAUGGUGAGCAUGAAUCUUCCCGAAGGAUAAAAACAGAAUUUUCCGUUCAAUCCGAUGGAGCAACAACAUCUUCUGAAGAUCGUAUCCCCGUGGUGGGAGCAACCAACAGAGGAUUGAGCAUCA
B16: chr2:85327303:85327429:-|CDS|ENSG00000152291|msi1|total|mutant (ssRNA)
RNA: GGGAGUUCUACAGUCCGACGAUCACCCAAAAAGGCAGCACCCGCAAGUCGGGUUCGGAGGCGCAGACCACAAAAGACAGCACCCGUAAGUCGCAUCCGGAGCUGCAGACUCCAAAAGACAGCACUGGCAAAUCGGGUGCGGAGCAACAGAGGAUUGAGCAUCA
B17: chr1:108700024:108700125:+|3pUTR|ENSG00000134186|msi1|FALSE|bound_elsewhere (ssRNA)
RNA: GGGAGUUCUACAGUCCGACGAUCCACAUUGAAUCCUAUAAAUGAUUAAAUCUGCUUUUUUCCCCCACGUUGAGAUUGUGCAGUAGUUCGCACUCCUCAAGCUCUCCCUGUAGGCUGCAUUUUCAUUUCCUCUUUCGUGUAGGGCAACAGAGGAUUGAGCAUCA
B18: chr1:64832709:64832810:+|3pUTR|ENSG00000162437|msi1|total|mutant (ssRNA)
RNA: GGGAGUUCUACAGUCCGACGAUCACAGCCCGAAAGUUUAAGGUAAUUUCUAAGUAUACUACCUAUAAGUAACUGAUAAGAAUCCGGCAUCAUUCAGUGAUACCGCAGAUGACUAAUGGGUUUUUCAGGCCCUGCACUUCUCUUCAACAGAGGAUUGAGCAUCA
B19: ENSG00000138778:stop:overlap|stop_codon|ENSG00000138778|stop_codon|NA|stop_codon (ssRNA)
RNA: GGGAGUUCUACAGUCCGACGAUCCUCAGCCAGGUCCUUGGCACGCCUCCUCAGGCAAGGAUGUGCCUGAGUGCAAAACUCAGUAGACUCCUCUUUGUCACUUCUCUGGAGAUCCAGCAUUCCUUAUUUGGAAAUGACUUUGUUCAACAGAGGAUUGAGCAUCA
B20: chr11:10511672:10514915:-|three_prime_utr|ENSG00000110315|control|control|control (ssRNA)
RNA: GGGAGUUCUACAGUCCGACGAUCGAAGUGAAAGUCUUCUGUUGCUAUUGUGGGCUCAAAUAUUUGGUCAUGGGGGAAGAAUGUAGGGUUGUGGCACUGGCACAGACACAGGAAAAUCCAUUUUCCCCACUCUUUUAUUUUUGCCAACAGAGGAUUGAGCAUCA
B21: chr4:173322470:173322571:+|3pUTR|ENSG00000109586|msi1|total|mutant (ssRNA)
RNA: GGGAGUUCUACAGUCCGACGAUCUGCCGCAUUCACUCCCUUACCUACUGGCAUUCCCAGUGCCCUCUGUCCAUACCUACUUCCCGGAUUGCAAAGGAGUCUUCCAACCCGAGAAAAAUUGUCCACUGACAUUUGGGAUUUACUCAACAGAGGAUUGAGCAUCA
B22: chr10:60791946:60792061:+|CDS|ENSG00000170312|unk|total|mutant (ssRNA)
RNA: GGGAGUUCUACAGUCCGACGAUCGUCAGCUCGUUACUCAACUCCAGUUGACAUUUGGAGUACCGGCACCAUAUUUGCUGAACCCGCAACUAAGAAACCACUUUUCCAUGGGGAUUCAGAAAUUGAUCAACUCUUCAGGAUUUUCAACAGAGGAUUGAGCAUCA

The assay addresses T1, UNK ZnF1-6 (called full-length). Kind of assay: nsRBNS (natural sequence RNA bind-n-seq); RBNS binding buffer (assumed for nsRBNS): 25 mM Tris pH 7.5, 150 mM KCl, 3 mM MgCl2, 0.01% Triton X-100, 500 ug/ml BSA, 20 U/ml SUPERase-In, 4 C; UNK is unkempt and MSI1 is Musashi-1; names of the RNAs are library labels; protein concentration not given here; high values mean tight binding.
B1 returned a binding signal of 1.44 enrichment R. B2 returned a binding signal of 0.642 enrichment R. With B3, the binding signal amounted to 0.693 enrichment R. The result for B4 reads 0.828 enrichment R; that for B5, 1.05 enrichment R. The result for B6 reads 0.478 enrichment R.

On to B7, for which the binding signal is 0.552 enrichment R.

B8 gave a binding signal of 0.584 enrichment R. Take B9: the binding signal was 0.481 enrichment R. The result for B10 reads 0.674 enrichment R. In turn, B11 showed a binding signal of 0.937 enrichment R. The result for B12 reads 0.336 enrichment R. The result for B13 reads 0.895 enrichment R; that for B14, 0.988 enrichment R. For B15 the value was 0.518 enrichment R; for B16, 0.714 enrichment R.

Turning to B17, the binding signal was 0.662 enrichment R. For B18 the value was 0.244 enrichment R; for B19, 0.636 enrichment R; for B20, 0.749 enrichment R. The molecule B21 had a binding signal of 1.06 enrichment R. As for B22, the binding signal amounted to 0.671 enrichment R.
